In ChEMBL document CHEMBL4888484, “Replenishing the malaria drug discovery pipeline: Screening and hit evaluation of the MMV Hit Generation Library 1 (HGL1) against asexual blood stage Plasmodium falciparum ,using a nano luciferase reporter read-out” (2022):
Where “and” joins values, the source holds several entries; their conditions need not be identical. Identical values can stand only once. Among all 150,000 compounds or so, about 540 (0.36%) showed an effect of 50% or more. Some of the results follow.

System: Plasmodium falciparum
Assay: Primary screen in NF54 nanoGlo assay, in single point, at 2uM, 72h; a lower Z score goes with more inhibition
Type: functional, Erythrocyte
Conditions: timepoint 72 hour

SMILES	% Inhibition [%]	Z score	% Inhibition (2 µM)
CCCc1c(C(=O)N[C@@H](C)CCN(C)C)[nH]c(C)c1C(=O)OC	-2	0.28	–
O=C1CC[C@@]2(CCCN(C(=O)c3cccc(O)c3)C2)CN1CCc1ccccn1	-1	0.17	–
CO[C@H]1[C@@H]2CC[C@H]1CN(c1nc(N)nc(C)c1CCC(=O)O)C2	-11	1.37	–
Cc1c(CN[C@H]2CC3(CCOCC3)Oc3ccccc32)cnn1C	5	-0.94	–
O=C1CCc2cc(NC(=O)c3ccoc3)ccc2N1	-22	1.95	–
Cc1cc(NC(=O)c2ccc(-n3cncn3)nn2)no1	-11	1.4	–
O=C(Nc1nc(-c2ccsc2)ns1)N1CCCC(F)(F)CC1	-7	0.89	–
Cc1cc(C)c(-c2nc(-c3c(C)ncc4c3CCNC4)no2)c(=O)[nH]1	-11	2.08	–
Cc1cccc(-n2nc(C3CC3)nc2Cn2ccnn2)c1C	-5	1.07	–
CN(Cc1cccc2[nH]ccc12)Cc1nccn1C	0	0.01	–
O=C(Cc1cc(-c2ccccc2)on1)Nc1ccccc1-c1ccccc1	3	-0.69	–
CCOC(=O)N1CCN(/C(=N\c2cccc(C(=O)O)c2)NC[C@H]2CCCO2)CC1	6	-0.57	–
O=S(=O)(CCn1ccnc1-c1ccncc1)c1ccccc1	-12	2.34	–
CCn1cnc(C(=O)NCc2ccc(F)cc2)c1	-9	1.12	–
CCN(C)C(=O)c1ncccc1NCC1CCC1	-9	1.17	–
Cc1ccc(N2CCN(Cc3nc(-c4ccccn4)no3)[C@@H](C)C2)cc1	-9	1.41	–
CCC[C@]1(CO)CCCN(c2cc(C(=O)N3CCCCC3)ccn2)C1	-14	1.92	–
CCOc1ccc(-n2c(-c3ccccc3)cc(C(=O)NCc3cccnc3)c2C)cc1	6	-0.89	–
CCOC(=O)N1CCN(C(=O)c2ccc(N(CC)S(C)(=O)=O)cc2)CC1	-2	0.32	–
CCN1CCN(C(=O)C2=CC(c3cccs3)=NS(=O)(=O)N2C)CC1	-1	0.22	–
O=C(Nc1[nH]nnc1C(=O)N1CCCC1)N[C@H]1CC12CCCCC2	1	-0.11	–
Cc1ccccc1OC[C@H](O)c1ncnn1CC(F)(F)F	-6	0.76	–

SMILES	% Inhibition [%]	Z score	% Inhibition (2 µM)
c1ccc(-c2cn3nc(NCc4ccc(Cn5ccnc5)cc4)sc3n2)cc1	3	-0.54	–
CC(O)CCCNC1C2CCC1Cc1ccccc1C2 (stereo unspecified)	29	-3.24	–
O=C1OC[C@@H]2CCN(Cc3cccnc3)Cc3ccc(F)cc3N12	-14	2.18	–
CCOCCC(=O)Nc1nccc(C)n1	9	-1.32	–
COc1ccc(N2CCN(C(=O)c3ccc(F)cc3)[C@@H](C)C2=O)cc1	36	-1	–
Cc1ccc(O[C@H]2COCC[C@H]2Nc2nc(N(C)C)ns2)cn1	-1	0.16	–
CC(C)N(CCO)C(=O)C[C@]1(c2ccccc2)CC(=O)N(CCCOc2cccnc2)C1=O	8	-0.97	–
CC(C)(C(=O)COc1ncncc1-c1ccccc1)c1ccccc1	4	-0.75	–
CNC(=O)C1CCCCN1CCOCC1CCCO1 (stereo unspecified)	-3	0.36	–
CC1(C)[C@@H](NS(=O)(=O)CC2CCCCO2)[C@@H]1c1ccccc1 (stereo partly specified)	-9	1.32	–
CC1OCCC1S(=O)(=O)N(C)Cc1nncn1C(C)C (stereo unspecified)	-8	1.5	–
O=c1[nH]cnc2[nH]c3cc(F)ccc3c12	-6	1.1	–
CN(c1ccnc(C(=O)NCCN2CCOCC2)c1)S(=O)(=O)c1ccccc1	-6	0.91	–
Cn1cc(S(=O)(=O)N2CCN(c3ccccn3)C(=O)C2)cn1	16	-2.04	–
O=C(c1ccc(NCc2cccnc2C(F)(F)F)cc1)C1CCC1	-18	2.75	–
O=C(Nc1cccc(Cl)c1)OCC(F)(F)F	5	-0.73	–
Cc1ccccc1[C@H]1CC(=O)Nc2c1cnn2-c1nc2ccccc2s1	0	0.03	–
CCCn1ncc(C(=O)N2C[C@H](NC(C)=O)[C@@H](c3ccc(C)cc3)C2)c1C	-8	1.11	–
CN1CCN(c2cc(N(C)Cc3ncc[nH]3)ncn2)CC1=O	5	-0.84	–
CC(C)C(=O)N(Cc1ccccc1OS(=O)(=O)c1cccc(C(F)(F)F)c1)C[C@H]1CCCO1	-9	1.64	–
C[C@@H](c1cccc(Cl)c1)S(N)(=O)=O	-11	1.01	–
Cc1cc(CN(C)C(=O)c2ccc(C(C)C)cn2)no1	-3	0.46	–

SMILES	% Inhibition [%]	Z score	% Inhibition (2 µM)
COc1ccc(N(CC#N)Cc2cccs2)cc1	-1	0.07	–
C[C@@H](Cc1csc2ccccc12)NC(=O)c1ccno1	2	-0.19	–
COc1ccc(NC(=O)c2cnc(N(Cc3ccccc3)C(C)C)nc2N)cc1	15	-2.3	–
O=C(Nc1cnc(N2CCCCCC2)nc1)c1cnccn1	-38	3.38	–
CS(=O)(=O)N1CC[C@H](CNC(=O)N(CC2CC2)CC2CC2)C1	7	-0.77	–
COc1ccc(Br)cc1NC(=O)N(C)CCCn1ccnc1	8	-0.86	–
CC(C)N1CC[C@H](N(C)C(=O)c2ccc(C(=O)O)cc2F)C1	6	-0.96	–
CC(C)CCC(CC(=O)NCCN(C)C)C1CCOC(C)(C)C1 (stereo unspecified)	-11	1.47	–
COc1ccccc1/C=C/CN1CCN(C)[C@]2(CCC(=O)N(C)CC2)C1	5	-0.94	–
Cc1cccc(CN2CCN(C(=O)c3ccccn3)[C@H]3CS(=O)(=O)C[C@H]32)c1	11	-1.45	–
CC(C)N(Cc1c(-c2ccccc2)nn(C)c1Oc1ccc(F)cc1)C[C@H](O)CN1CCOCC1	-13	1.47	–
COC[C@H]1[C@H](NS(=O)(=O)Cc2cc(Cl)cc(Cl)c2)[C@H]2CCO[C@H]21	-11	2.06	–
Cc1cccc(NC(=O)CN2CCN(Cc3nc(-c4ccccc4)no3)CC2)c1C	-2	0.43	–
CN1CCN(C(=O)c2nn(C)c(=O)c3ccccc23)CC1=O	-3	0.51	–
Cn1c(=O)c2c(ncn2CC(=O)N(Cc2ccccc2)C2CC2)n(C)c1=O	36	-4.58	–
CC(C)[C@@H](c1nc(C2CC2)no1)N1CCCS1(=O)=O	-3	0.4	–
Cc1noc(C)c1CC(=O)Nc1n[nH]c(CCC2CCCC2)n1	–	–	-1% and -8%
Cc1c(NC(=O)[C@H]2CCCN(CC(F)(F)F)C2)nnn1Cc1cccc(F)c1	-4	0.84	–
COc1ccc(CC(=O)NCc2ccc(OCc3cccnc3)cc2)cc1	26	-3.35	–
O=C(Nc1ccc(Cl)cc1C(F)(F)F)N1CC[C@H](n2cnnc2C2CC2)C1	-3	0.5	–
Cn1ccnc1CN(CCO)C(=O)c1cc2cccc(Cl)c2n1C	-1	0.13	–
CN1C(=O)c2ccccc2O[C@H]2CN(Cc3cc(-c4ccccc4)no3)C[C@H]21	4	-0.65	–

SMILES	% Inhibition [%]	Z score	% Inhibition (2 µM)
COCCNC(=O)c1ccc(OC)cc1OC1CCN(Cc2cccc3cccnc23)CC1	-9	0.85	–
COc1cccc(-n2c(=O)n(C3CCCC3)c(=O)c3c2ncn3Cc2cccc(C#N)c2)c1	-11	0.98	–
Cn1c(-c2nccn2[C@@H](Cc2ccccc2)C(=O)O)nc2ccccc21	-6	0.87	–
Cc1cccc(-c2noc(-c3sccc3NC(=O)c3n[nH]c4ccccc34)n2)c1	-4	0.42	–
CCn1cc(-c2cn(CCOc3ccccc3)nn2)cn1	-8	0.96	–
Cc1noc(COc2ccc(NC(=O)C3CCC3)cc2)n1	-4	0.59	–
CC(C)c1cnc(NS(C)(=O)=O)s1	-10	1.49	–
CCN(CC)C(=O)c1c(COc2ccc(C)cc2)n(Cc2ccccn2)c(C)cc1=O	4	-0.79	–
Cc1noc(NC(=O)[C@H](C)Oc2ccccc2Br)n1	5	-0.57	–
CCCN(CC1CC1)C(=O)Nc1cccc(-c2nnc(C)s2)c1	-6	1.02	–
COCc1cccc(CC(=O)N2CC3(CCC3)[C@@H]2C2CC2)c1	-4	0.46	–
CCCc1nc(CS(=O)(=O)[C@@H](C)C(N)=O)cs1	-4	0.41	–
CC1CC2CCCCC2N1C(=O)Nc1ccc(Cl)cc1 (stereo unspecified)	-1	0.13	–
CCOC(=O)c1cc(C2CC2)nc2c1c(=O)n(CC(=O)Nc1ccc(Cl)cc1)c(=O)n2C	12	-1.64	–
Cc1nnc(-c2ccc3ccn(CC(=O)N4CCCCC4)c3c2)o1	5	-0.54	–
CCNC(=NCCc1csc(N2CCCC2)n1)NCC	-3	0.58	–
O=C(C1CC1)[C@@H]1CN(CC(=O)N2CCOCC2)CCO1	-7	0.95	–
CCN(Cc1ccccc1OC(F)F)S(C)(=O)=O	-4	0.45	–
O=C(CN1CC2CCCCC21c1ccccc1)NC(=O)NCC(F)(F)F (stereo unspecified)	-2	0.35	–
O=C(CCn1cnc2cc(S(=O)(=O)N3CCCC3)ccc21)N1CCOCC1	-18	1.81	–
